Some of these results come from one statement about several compounds together. Some compounds share one range, which may span the group rather than tell each member.
How the values were obtained:
Format in all cases: biochemical
[1] = target: PKC theta (Homo sapiens, UniProt Q04759); test: PKC Theta I coupled-enzyme (NADH absorbance) kinase assay; details: 18 nM PKC theta, 240 μM ATP, 30° C., absorbance at 340 nm
Summary of the method: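 Enzyme and compound equilibrated 10 min at 30 °C before reaction in HEPES pH 7.5 buffer with MgCl2, NaCl, EDTA and Brij. Activity tracked as NADH loss at 340 nm through a coupled system. Initial-rate data fitted by non-linear regression to give Ki.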

[2] = target: PKC delta kinase (Homo sapiens, UniProt Q05655); test: PKC Delta coupled-enzyme kinase assay; details: 46 nM PKC delta, 150 μM ATP, 30° C.; read-out: Ki PKC delta
Method: An assay buffer solution was prepared which consisted of 100 mM HEPES (pH 7.5), 10 mM MgCl2, 25 mM NaCl, 0.1 mM EDTA and 0.01% Brij. […] To 16 μL of this enzyme buffer, in a 384 well plate, was added 1 μL of VRT stock solution in DMSO. The mixture was allowed to equilibrate for 10 mins at 30° C. […] Ki values were calculated from initial rate data by non-linear regression using the Prism software package (Prism 4.0a, Graphpad Software, San Diego, Calif.).

[3] = target: PKC alpha kinase (Homo sapiens, UniProt P17252); test: PKC Alpha coupled-enzyme kinase assay; details: 4.5 nM PKC alpha, 130 μM ATP, 30° C.
Method: An assay buffer solution was prepared which consisted of 100 mM HEPES (pH 7.5), 10 mM MgCl2, 25 mM NaCl, 0.1 mM EDTA, 100 μM CaCl2 and 0.01% Brij. […] To 16 μL of this enzyme buffer, in a 384 well plate, was added 1 μL of VRT stock solution in DMSO. The mixture was allowed to equilibrate for 10 mins at 30° C. The enzyme reaction was initiated by the addition of 16 μL stock ATP solution prepared in assay buffer to a final assay concentration of 130 μM. Initial rate data was determined from the rate of change of absorbance at 340 nm (corresponding to stoichiometric consumption of NADH) using a Molecular Devices Spectramax plate reader (Sunnyvale, Calif.) over 15 mins at 30° C. For each Ki determination 12 data points covering the VRT concentration range of 0-20 μM were obtained in duplicate (DMSO stocks were prepared from an initial 10 mM VRT stock with subsequent 1:2 serial dilutions). Ki values were calculated from initial rate data by non-linear regression using the Prism software package (Prism 4.0a, Graphpad Software, San Diego, Calif.).

`C=Cc1cnc(N)c(C(=O)c2cccc(N3CCC(N)CC3)n2)c1` [compound 164] gave a Ki [1] of less than 0.05 µM, a Ki [2] of less than 0.05 µM and a Ki [3] of 0.05 to 0.5 µM.

For `CC1CNCCN1c1cccc(C(=O)c2cccnc2N)n1` (centres unmarked) [compound 191], the Ki [1] was less than 0.05 µM, the Ki [2] was less than 0.05 µM and the Ki [3] was 0.05 to 0.5 µM.

With `C[C@@H]1CNCCN1c1cccc(C(=O)c2cccnc2N)n1` [compound 227] the Ki [1] was less than 0.05 µM, the Ki [2] was less than 0.05 µM and the Ki [3] was 0.05 to 0.5 µM.

`C[C@@H]1CN(c2cccc(C(=O)c3cccnc3N)n2)[C@H](C)CN1` [compound 235] was tested, and the Ki [1] was less than 0.05 µM, the Ki [2] was less than 0.05 µM and the Ki [3] was 0.05 to 0.5 µM.

Compound `Nc1ncccc1C(=O)c1cccc(N2CCC(N)(c3ccccc3)CC2)n1` [compound 306] has a Ki [1] of less than 0.05 µM, a Ki [2] of less than 0.05 µM and a Ki [3] of 0.05 to 0.5 µM.

In the case of `Nc1ncccc1C(=O)c1cccc(N2CCNC(c3cccc(O)c3)C2)n1` (centres unmarked) [compound 311], the Ki [1] is reported as less than 0.05 µM, the Ki [2] is reported as less than 0.05 µM and the Ki [3] is reported as 0.05 to 0.5 µM.

Work on `C=Cc1ccc(N2CCNC(c3ccccc3)C2)nc1C(=O)c1cccnc1N` (centres unmarked) [compound 347] yielded a Ki [1] of less than 0.05 µM, a Ki [2] of less than 0.05 µM and a Ki [3] of 0.05 to 0.5 µM.

For `CCc1ccc(N2CCN[C@@H](CC(C)C)C2)nc1C(=O)c1cccnc1N` [compound 349], the Ki [1] was less than 0.05 µM, the Ki [2] was less than 0.05 µM and the Ki [3] was 0.05 to 0.5 µM.

Work on `CC(C)C[C@H]1CN(c2ccc(C(C)(F)F)c(C(=O)c3cccnc3N)n2)CCN1` [compound 353] yielded a Ki [1] of less than 0.05 µM, a Ki [2] of less than 0.05 µM and a Ki [3] of 0.05 to 0.5 µM.

`C#Cc1ccc(N2CCNC(c3ccccc3)C2)nc1C(=O)c1cccnc1N` (centres unmarked) [compound 358] showed a Ki [1] of less than 0.05 µM, a Ki [2] of less than 0.05 µM and a Ki [3] of 0.05 to 0.5 µM.

Compound `C/C=C/c1ccc(N2CCN[C@@H](CC(C)C)C2)nc1C(=O)c1cccnc1N` [compound 361] has a Ki [2] of less than 0.05 µM and a Ki [3] of 0.05 to 0.5 µM.

With `Nc1ncc(-c2cc3c(s2)CCNCC3)cc1C(=O)c1ccc(NC(=O)c2ccccc2)s1` [compound 366] the Ki [1] was less than 0.05 µM, the Ki [2] was less than 0.05 µM and the Ki [3] was 0.05 to 0.5 µM.

For `C/C=C\c1ccc(N2CCNC(c3ccccc3)C2)nc1C(=O)c1cccnc1N` (centres unmarked) [compound 383], the Ki [1] was less than 0.05 µM, the Ki [2] was less than 0.05 µM and the Ki [3] was 0.05 to 0.5 µM.

`CC(C)C[C@H]1CN(c2ccc(C(F)F)c(C(=O)c3cccnc3N)n2)CCN1` [compound 403] gave a Ki [1] of less than 0.05 µM, a Ki [2] of less than 0.05 µM and a Ki [3] of 0.05 to 0.5 µM.

With `C/C=C\c1ccc(N2CCNCC2)nc1C(=O)c1cccnc1N` [compound 410] the Ki [1] was less than 0.05 µM, the Ki [2] was less than 0.05 µM and the Ki [3] was 0.05 to 0.5 µM.

Compound `C/C=C/c1ccc(N2CCNCC2)nc1C(=O)c1cccnc1N` [compound 411] has a Ki [1] of less than 0.05 µM, a Ki [2] of less than 0.05 µM and a Ki [3] of 0.05 to 0.5 µM.

`Nc1ncccc1C(=O)c1nc(N2CCNCC2)ccc1-c1ccccc1` [compound 416] was tested, and the Ki [1] was less than 0.05 µM, the Ki [2] was less than 0.05 µM and the Ki [3] was 0.05 to 0.5 µM.

Compound `Nc1ncccc1C(=O)c1nc(NC[C@@H](O)c2ccccc2)ccc1C(F)(F)F` [compound 421] has a Ki [1] of less than 0.05 µM, a Ki [2] of less than 0.05 µM and a Ki [3] of 0.05 to 0.5 µM.
